{
  "source": "PubChem BioAssay AID1345083",
  "about": "(National Center for Advancing Translational Sciences (NCATS), 2018)",
  "note": "In all, about 94,000 compounds went through this assay and about 6,200 (6.6%) were called active. Inconclusive means that the source gave no clear call. Such entries were picked first, then a sample of the others. Calls follow the shape of the dose curve; as a rule, active = well fitted inhibition curve with a large enough effect; inconclusive = small, poorly fitted or top-dose-only effect; inactive = flat fitted curve, though single readings scatter. A potency beside an inconclusive call is a rough fit, not a confirmed value. Potency is read from the fitted curve at half-maximal effect; tags tell the direction and shape of the fitted curve.",
  "data": [
    {"test": "Cytotoxic Profiling in HEK 293 Cell Line of Diverse Libraries Using Quantitative High-Throughput Screening; also: nearly all actives have a fitted effect of over 60% in size", "conditions": "HEK 293 viability, ATP luminescence (CellTiter-Glo), 48-72 h; series mostly up to 115 µM", "outline": "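CellTiter-Glo luminescence (cellular ATP) was read after 48 or 72 hr of compound exposure at 37 degree Celsius. Cells were HEK 293 plated at 250 cells/well.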", "values": [
      {"smiles": "Cc1noc(C)c1S(=O)(=O)N1CCC2(CC1)NCCc1c2[nH]c2ccccc12", "Potency": "inconclusive: 35.5 µM [inhibitor, partial curve, poor fit]"},
      {"smiles": "CC(C)c1noc(-c2ccn3c(CNC(=O)c4ccc(F)cc4Cl)nnc3c2)n1", "Potency": "inactive"},
      {"smiles": "Cc1noc(C)c1-c1cc(-c2cccc(N3CCOCC3)c2)cn2cncc12", "Potency": "inconclusive: 35.5 µM [inhibitor, partial curve, poor fit]"},
      {"smiles": "Cc1noc(-c2nc(-c3ccc(Cl)cc3)no2)n1", "Potency": "inconclusive: 89.1 µM [inhibitor, single point]"},
      {"smiles": "CC(C)NC[C@H]1O[C@@H](CO)[C@@H](O)[C@H]1N1CCN(c2ccccn2)CC1", "Potency": "inactive"},
      {"smiles": "Cc1ccc(C(=O)N2CC(N(Cc3cccnc3)CC(C)C)C2)s1", "Potency": "inconclusive: 79.4 µM [inhibitor, partial curve, poor fit]"},
      {"smiles": "CC1=C[C@@H](CNCCN(C)C)[C@H](C(C)C)C[C@H]1Cc1nnc(C)o1", "Potency": "inactive"},
      {"smiles": "O=C1Nc2ccccc2CC12CCN(CC1CC1)C2", "note": "(configuration not stated)", "Potency": "inactive"},
      {"smiles": "O=C(O)C[C@@H]1CCN(C(=O)c2ccnc(Cl)c2)C[C@@H]1CCN1CCN(c2cccc(C(F)(F)F)c2)CC1", "Potency": "inactive"},
      {"smiles": "O=C(C1CCCC1)N1Cc2ccccc2CC2(CCCN(Cc3ccccc3)C2)C1", "note": "(configuration not stated)", "Potency": "inconclusive: 50.1 µM [inhibitor, partial curve, poor fit]"},
      {"smiles": "COC(=O)[C@H]1CN(C(=O)c2ccc(N(C)C)cc2)CCN1C(=O)c1cccs1", "Potency": "inactive"},
      {"smiles": "CCOC(=O)N1CCN(C(=O)C(c2ccccc2C)N(C)C)CC1", "note": "(configuration not stated)", "Potency": "inactive"},
      {"smiles": "CC(C)C[C@@H]1N[C@H](C(=O)N2CCN(C)CC2)Cc2c[nH]c3cccc1c23", "Potency": "inactive"},
      {"smiles": "COc1ccccc1-n1c(=O)c(C(=O)N2CCN(C(=O)Cc3ccccn3)CC2)nc2cccnc21", "Potency": "inactive"},
      {"smiles": "Cc1ccccc1CCC1CCCN(C(=O)CCc2cnccn2)C1", "note": "(configuration not stated)", "Potency": "inconclusive: 50.1 µM [inhibitor, partial curve, poor fit]"},
      {"smiles": "CCOc1ccccc1CN1CCN(c2nccc(OC)n2)CC1CCO", "note": "(configuration not stated)", "Potency": "inconclusive: 63.1 µM [inhibitor, partial curve, poor fit]"},
      {"smiles": "CC(c1nn[nH]n1)n1cc(-c2cc3c(cc2Cl)OCO3)nn1", "note": "(configuration not stated)", "Potency": "inactive"},
      {"smiles": "CN(CC(=O)N1CCC(CCOc2ccccc2F)C1)S(=O)(=O)c1cccs1", "note": "(configuration not stated)", "Potency": "active: 50.1 µM"},
      {"smiles": "Cc1ccc(C(=O)NC(C(=O)N2CCCCC2)C2CCN(C(=O)c3ccc(C)cc3)CC2)cc1", "note": "(configuration not stated)", "Potency": "inconclusive: 35.5 µM [inhibitor, full curve]"},
      {"smiles": "CCc1nc2c(c(-c3ccc(OC)cc3)n1)CN(C(=O)c1ccc3c(c1)OCO3)CC2", "Potency": "inactive"},
      {"smiles": "COc1ccc(C2(C(=O)N3C[C@@H](Oc4cccnc4)C[C@H]3C(=O)NC3CC3)CC2)cc1", "Potency": "inactive"},
      {"smiles": "COc1cccc(F)c1-c1ccc2c(n1)c(=O)ncn2Cc1ccccc1", "Potency": "inactive"},
      {"smiles": "COc1ccccc1OCc1nc2c(n1Cc1ccccc1)C(=O)N(Cc1ccccc1F)CCN2", "Potency": "inconclusive: 35.5 µM [inhibitor, full curve]"},
      {"smiles": "CCOCCn1c(=O)[nH]c2cc(C(=O)NCCc3ccc(C)s3)ccc21", "Potency": "inconclusive: 79.4 µM [inhibitor, partial curve, poor fit]"},
      {"smiles": "O=C1CC2(CCN(C(=O)C3CCN(C(=O)C4CCCC4)CC3)CC2)Oc2ccccc2N1", "Potency": "inconclusive: 100 µM [inhibitor, single point]"},
      {"smiles": "COc1ccc(Cc2nc3nccc(-c4ccc(OC)cc4)n3n2)cc1", "Potency": "inconclusive: 79.4 µM [inhibitor, partial curve, poor fit]"},
      {"smiles": "CC(=O)Nc1ccc(CN2CCCC(N3CCN(c4ccccc4)CC3)C2)cc1", "note": "(configuration not stated)", "Potency": "inactive"},
      {"smiles": "CN1C[C@@H](NC(=O)c2ccccn2)C[C@H]1c1nc(-c2ccc3ccccc3c2)no1", "Potency": "inconclusive: 100 µM [inhibitor, partial curve]"},
      {"smiles": "O=C1CCC2(CCN(c3nc4ccccc4s3)CC2)CN1Cc1cccnc1", "Potency": "inconclusive: 15.8 µM [inhibitor, full curve, poor fit]"},
      {"smiles": "COc1ccc(-c2nnc([C@H]3CCN(Cc4cccc(C#N)c4)C3)o2)cc1", "Potency": "inconclusive: 79.4 µM [inhibitor, partial curve, poor fit]"},
      {"smiles": "CCc1cccc(NC(=O)c2ccc3c(c2)N(C)C2CCCCN2C3=O)c1", "note": "(configuration not stated)", "Potency": "inconclusive: 50.1 µM [inhibitor, partial curve, poor fit]"},
      {"smiles": "CNC(=O)c1cc(C)nc2onc(C3CCN(C(=O)N(C)C)C3)c12", "note": "(configuration not stated)", "Potency": "inactive"},
      {"smiles": "Cc1ncoc1C(=O)N1CCCCCNC(=O)[C@@H]2CCC[C@@H]21", "Potency": "inactive"},
      {"smiles": "Cc1cccc2nc(C(=O)N3CCn4nc(Cc5ccccc5)cc4C3)cn12", "Potency": "active: 44.7 µM"},
      {"smiles": "COc1cc2c(cc1CN1C[C@@H]3CC[C@H](C1)N(CC1CCC1)C3=O)OCCO2", "Potency": "inconclusive: 50.1 µM [inhibitor, partial curve, poor fit]"},
      {"smiles": "Cc1ccc(OC(=O)N2CCC(COc3ccc4c(cnn4CCC(=O)O)c3)CC2)cc1", "Potency": "inconclusive: 100 µM [inhibitor, partial curve]"},
      {"smiles": "COc1ccc(-c2cc(N3CCCC(NC(=O)c4ccccc4Cl)C3)n[nH]2)cc1", "note": "(configuration not stated)", "Potency": "inconclusive: 50.1 µM [inhibitor, partial curve, poor fit]"},
      {"smiles": "COCCNC(=O)[C@H]1C[C@H](Oc2ccccc2)CN1S(=O)(=O)c1cccc(OC)c1", "Potency": "inconclusive: 89.1 µM [inhibitor, single point]"},
      {"smiles": "O=C(C[C@@H]1CCNC[C@@H]1Cc1cc(-c2ccccc2)on1)N1CCC(n2c(=O)[nH]c3ccccc32)CC1", "Potency": "inconclusive: 70.8 µM [inhibitor, partial curve]"},
      {"smiles": "O=[S+]([O-])(Nc1ccccc1)c1ccc2c(c1)OCCN(Cc1ccccn1)C2", "Potency": "active: 70.8 µM"},
      {"smiles": "COc1cccc(-c2ccc(C(=O)NCCN[S+](=O)([O-])c3cccs3)cc2)c1", "Potency": "inconclusive: 50.1 µM [inhibitor, partial curve, poor fit]"},
      {"smiles": "COc1ccc(-c2nnc3n2CCN([S+](=O)([O-])c2ccc(C)cc2)C3)cc1", "Potency": "inconclusive: 89.1 µM [inhibitor, single point]"}
    ]}
  ]
}
